Experimental data published in PubChem BioAssay AID1508624 (National Center for Advancing Translational Sciences (NCATS), 2021).
Hit rate of the full screen: of about 48,000 compounds, about 120 (0.25%) were called active. Inconclusive results (about 4%) are left out. Calls come from the whole dose curve; as a rule, active = well fitted activation curve with a large enough effect; inconclusive = small, poorly fitted or top-dose-only effect, or another doubt; inactive = no such curve, though single readings can be large or run the other way. The list shows a part of the results.

Assay: Primary qHTS for Identification of Small Molecule Activators of Huntingtin-Antisense Promoter Activity; note: nearly all actives have a fitted effect of over 55% in size
Conditions: HEK293 HTT-AS promoter firefly luciferase reporter (activity 0% = vehicle and -100% = no light), 24 h; series mostly up to 57.5 µM; activity change, positive = activation: at the top concentration
Outline: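 Luminescence was read after Dual-Glo reagent and a 10 min room-temperature incubation. Values were normalized to vehicle (0% activity) and zero RLU (-100% activity). Reporter HEK293 cells had been exposed to compounds (up to 57.5 uM final) for 24 h.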

Activity change, positive = activation, inactive:
CC(=O)c1ccc(NC(=O)CSc2cn(CC(=O)N3CCCCCC3)c3ccccc23)cc1 -38.9%, Cc1c(Cn2c(C)nc3c(C(=O)O)cc(N4CCOCC4)cc32)cccc1C(F)(F)F -30.9%, COc1ccc(-c2cc(C(=O)NCc3ccc(F)cc3)c3c(-c4ccc(F)cc4)[nH]nc3n2)cc1OC 0%, COc1ccc(NC(=O)CSc2oc(-c3ccco3)nc2S(=O)(=O)c2ccc(Br)cc2)c(OC)c1 -12%, CCc1ccc2oc(-c3cc(NC(=O)C(C)C)cc(C)c3O)nc2c1 5.84%, CC(C)Cn1c(=O)c2sccc2n2c(CCCC(=O)NCc3ccccc3Cl)nnc12 -1.08%, CCCCNC(=O)CCn1c(=O)c2ccccc2n(Cc2ccccc2C#N)c1=O -11.5%, CCC(=O)N1CCc2cc(Br)cc(S(=O)(=O)N3CCCC(C(=O)Nc4cccc(Cl)c4C)C3)c21 (centres undefined) -27.4%, CCOc1ccc(CC(=O)Nc2c(C(=O)c3ccc(C)cc3)oc3ccccc23)cc1OCC -5.24%, Cc1ccc(C(=O)COC(=O)C(CC(C)C)NC(=O)C2CCC(C)CC2)cc1 (centres undefined) -10.2%, CCc1ccccc1NC(=O)c1ccc2nc(CCc3ccccc3)oc2c1 10.5%, COc1cc(C2N=C(N)Nc3nc4ccccc4n32)ccc1OCCC(C)C (centres undefined) -24.3%, O=C(Cc1cccc([N+](=O)[O-])c1)NCc1nc2cccnc2n1Cc1ccc(F)cc1 -20.9%, CC(=O)c1cccc(NC(=O)C2CCCN(c3nnc(-n4cccc4)s3)C2)c1 (centres undefined) -12.1%, Cn1c(=O)cc(OCCCC(=O)Nc2ccc(F)cc2)c2ccccc21 24%, CCOc1ccc(NS(=O)(=O)c2cc(Br)cc3c2N(C(=O)C2CC2)CC3)cc1 -23.5%, CCCN(CCC)CCCNC(=O)C1CCCN(S(=O)(=O)c2cccc3nsnc23)C1 (centres undefined) 2.83%, Cc1ccccc1-c1nc(CS(=O)(=O)CC(=O)N2CCN(c3ccccc3)CC2)c(C)o1 -26%, CC(=O)Nc1ccc(NC(=O)CCNS(=O)(=O)c2cccc3nsnc23)cc1 0.681%, CCC(C)(CN(C)C)OC(=O)c1ccccc1 (centres undefined) -8.94%, CCc1ccc2oc(-c3cccc(NC(=O)c4ccc(N5CCC(C)CC5)c([N+](=O)[O-])c4)c3)nc2c1 19.9%, COc1cccc(NC(=O)Cn2cc(S(=O)(=O)N3CCCC3)c(S(=O)(=O)N3CCCC3)c2)c1 -6.77%, CCOc1ccccc1CNC(=O)c1cc2cc(S(=O)(=O)N3CCCCC3)ccc2n1C -32.3%, Cc1ccccc1CNC(=O)Cn1ncn2nc(-c3cccs3)cc2c1=O -0.653%, O=C(COc1ccc(S(=O)(=O)NC2CCCCC2)cc1)Nc1ccc(C(F)(F)F)cc1 -28.5%, Cc1cc(N2CCCCC2)nc2ccc(NC(=O)/C=C/c3ccccc3OC(C)C)cc12 -16.4%, CCOc1ccc(N(CC)S(=O)(=O)N2CCCC(C(=O)NCc3ccccc3Cl)C2)cc1 (centres undefined) -32.9%, CCOc1cccc(CC(=O)N2CCc3c([nH]c4ccccc34)C2c2ccc(F)cc2)c1OCC (centres undefined) -24.7%, O=S(=O)(c1ccccc1)n1nc(-c2ccccc2)nc1NCc1ccc(Cl)cc1 -11.3%, Cc1ccc(CNC(=O)CSCc2ccc(F)cc2)cc1 4.15%, Cc1ccc(NC(=O)c2oc3ccccc3c2NC(=O)c2cc3ccccc3o2)cc1 20%, O=C(CSc1cn(CCNC(=O)c2c(F)cccc2F)c2ccccc12)Nc1ccc2c(c1)OCCO2 -23.3%, COC(=O)c1ccc(NC(=O)c2cc(S(=O)(=O)N3CCc4ccccc43)cn2C)cc1 -18.3%, CC(C)CC(NS(=O)(=O)c1ccc2c(c1)oc(=O)n2C)C(=O)NCCc1ccc(Cl)cc1 (centres undefined) -10.8%, CCCc1nc(C)c2c(=O)[nH]c(-c3cc(S(=O)(=O)N4CCN(CC)CC4)ccc3OCC)nn12, Cc1cc(C)cc(NS(=O)(=O)c2ccc3[nH]cc(C(=O)N4CCCC4)c(=O)c3c2)c1 -7.92%, O=C(OCc1cc(=O)n2nc(C3CC3)sc2n1)c1ccc(F)cc1 36.5%, CCOc1ccccc1NC(=O)Cn1cnc2onc(-c3ccc(F)cc3)c2c1=O -22.3%, COc1ccc(-n2c(=O)c3ccc(C(=O)NCc4ccc(C)cc4)cc3n(CC(=O)Nc3ccc(F)cc3)c2=O)cc1 -12.3%, NCc1c[nH]c(=S)n1[C@H]1CCc2c(F)cc(F)cc2C1 -22.2%, CC1=C(C(N)=O)C(c2cccc(Br)c2)n2nc(SCc3ccccc3)nc2N1 (centres undefined) -9.02%, O=C(NCc1cccnc1)C1CCN(Cc2cc3ccccc3n2Cc2cccc(Cl)c2)CC1 -27%, CCCCc1nnc(SCc2cc(=O)c3cc(C(=O)OCC)ccc3[nH]2)n1C -14.1%, CCC1CCc2nc3sc(C(=O)Nc4ccc(F)cc4F)c(N)c3cc2C1 (centres undefined) 12.8%, CC(=O)Nc1cccc(C(=O)NCc2ccc3c(c2)CCN3C(=O)c2ccccc2)c1 -23%, CCOc1ccc(CCNC(=O)Cn2nnc(-c3ccccc3)n2)cc1OCC -17%, Cc1ccc2cccc(NC(=O)c3ccc(-c4cccc([N+](=O)[O-])c4)o3)c2n1 -13.6%, COc1cc(OC)c(NC(=O)NC(C)c2c(-n3cccc3)sc(C)c2C)cc1Cl (centres undefined) -28.7%, CCCCNC(=O)CSc1nc2nc(C)c(Cc3ccccc3C)c(C)n2n1 -21%, COc1cc(NS(=O)(=O)c2ccc(NC(=O)c3ccccc3C(=O)O)cc2)nc(OC)n1 -9.61%, CC(C)CC(=O)Nc1ccc(C(=O)OCc2cc(=O)n3nc(C(C)C)sc3n2)cc1 -28%, COc1ccc(/C=C/c2nc(C#N)c(NCCc3ccc(OC)c(OC)c3)o2)cc1OC -26.2%, C[N+]1(C)[C@@H]2CC(OC(=O)[C@H](CO)c3ccccc3)C[C@H]1[C@H]1O[C@@H]12 (some centres undefined) 14.2%, COc1ccc(C(=O)N2CC(=O)Nc3ccc(F)cc3C2c2ccc(F)cc2)c(OC)c1 (centres undefined) -11.4%, CCOC(=O)c1sc(NC(=O)/C=C/c2ccc(OCC)cc2)c(C(=O)OCC)c1C 35.7%, COC(=O)c1cccc(Nc2c(-c3ccc(O)c(OC)c3)nc3nc[nH]n23)c1 -16.2%, CCOc1ccc(-c2c(C)nn3c(C)c(C(=O)Nc4ccccc4C(=O)OC)cnc23)cc1OCC -6.31%, Cn1c(=O)c2c(ncn2CC(O)CO)n(C)c1=O (centres undefined), COCc1cc(C)nc2sc3c(c12)NC(c1ccc(O)cc1)N(c1ccc(OC)cc1)C3=O (centres undefined) -10.6%
